This is an account of results in PMC9911399, “Two distinct binding modes provide the RNA-binding protein RbFox with extraordinary sequence specificity”.

B1: GUAAUCA (DNA:RNA)
RNA: GGGAGACCGGAAUUCAGAUUGUCCGUAAUCAUUAAAUCCCGUCGUAGCCACCA
DNA 1: CAATCTGAATTCCGGTCTCCC
DNA 2: TGGTGGCTACGACGGGATT
B2: CACGGGA (DNA:RNA)
RNA: B1 RNA with G25C, U26A, A27C, A28G, U29G, C30G
DNA 1: CAATCTGAATTCCGGTCTCCC
DNA 2: TGGTGGCTACGACGGGATT
B3: UCUAAAA (DNA:RNA)
RNA: B1 RNA with G25U, U26C, A27U, U29A, C30A
DNA 1: CAATCTGAATTCCGGTCTCCC
DNA 2: TGGTGGCTACGACGGGATT
B4: AUUUGUA (DNA:RNA)
RNA: B1 RNA with G25A, A27U, A28U, U29G, C30U
DNA 1: CAATCTGAATTCCGGTCTCCC
DNA 2: TGGTGGCTACGACGGGATT
B5: UGGGGGC (DNA:RNA)
RNA: GGGAGACCGGAAUUCAGAUUGUCCUGGGGGCUUAAAUCCCGUCGUAGCCACCA
DNA 1: CAATCTGAATTCCGGTCTCCC
DNA 2: TGGTGGCTACGACGGGATT
B6: CCUGGAU (DNA:RNA)
RNA: B5 RNA with U25C, G26C, G27U, G30A, C31U
DNA 1: CAATCTGAATTCCGGTCTCCC
DNA 2: TGGTGGCTACGACGGGATT
B7: UUUGGCU (DNA:RNA)
RNA: B5 RNA with G26U, G27U, G30C, C31U
DNA 1: CAATCTGAATTCCGGTCTCCC
DNA 2: TGGTGGCTACGACGGGATT
B8: GUACUCC (DNA:RNA)
RNA: B1 RNA with A28C, A31C
DNA 1: CAATCTGAATTCCGGTCTCCC
DNA 2: TGGTGGCTACGACGGGATT
B9: CGAAAUC (DNA:RNA)
RNA: B1 RNA with G25C, U26G, U29A, C30U, A31C
DNA 1: CAATCTGAATTCCGGTCTCCC
DNA 2: TGGTGGCTACGACGGGATT
B10: CUGAAGU (DNA:RNA)
RNA: B1 RNA with G25C, A27G, U29A, C30G, A31U
DNA 1: CAATCTGAATTCCGGTCTCCC
DNA 2: TGGTGGCTACGACGGGATT
B11: CUGAUGU (DNA:RNA)
RNA: B1 RNA with G25C, A27G, C30G, A31U
DNA 1: CAATCTGAATTCCGGTCTCCC
DNA 2: TGGTGGCTACGACGGGATT
B12: CUAGGGU (DNA:RNA)
RNA: B5 RNA with U25C, G26U, G27A, C31U
DNA 1: CAATCTGAATTCCGGTCTCCC
DNA 2: TGGTGGCTACGACGGGATT
B13: CUCGGUC (DNA:RNA)
RNA: B5 RNA with U25C, G26U, G27C, G30U
DNA 1: CAATCTGAATTCCGGTCTCCC
DNA 2: TGGTGGCTACGACGGGATT
B14: ACUUGUA (DNA:RNA)
RNA: B1 RNA with G25A, U26C, A27U, A28U, U29G, C30U
DNA 1: CAATCTGAATTCCGGTCTCCC
DNA 2: TGGTGGCTACGACGGGATT
B15: GAAGUGG (DNA:RNA)
RNA: B1 RNA with U26A, A28G, C30G, A31G
DNA 1: CAATCTGAATTCCGGTCTCCC
DNA 2: TGGTGGCTACGACGGGATT
B16: UAAAACG (DNA:RNA)
RNA: B1 RNA with G25U, U26A, U29A, A31G
DNA 1: CAATCTGAATTCCGGTCTCCC
DNA 2: TGGTGGCTACGACGGGATT
B17: AGGGCAA (DNA:RNA)
RNA: B5 RNA with U25A, G29C, G30A, C31A
DNA 1: CAATCTGAATTCCGGTCTCCC
DNA 2: TGGTGGCTACGACGGGATT
B18: CGCUUCU (DNA:RNA)
RNA: B1 RNA with G25C, U26G, A27C, A28U, A31U
DNA 1: CAATCTGAATTCCGGTCTCCC
DNA 2: TGGTGGCTACGACGGGATT
B19: UACUAAU (DNA:RNA)
RNA: B5 RNA with G26A, G27C, G28U, G29A, G30A, C31U
DNA 1: CAATCTGAATTCCGGTCTCCC
DNA 2: TGGTGGCTACGACGGGATT
B20: UCACUAA (DNA:RNA)
RNA: B1 RNA with G25U, U26C, A28C, C30A
DNA 1: CAATCTGAATTCCGGTCTCCC
DNA 2: TGGTGGCTACGACGGGATT
B21: CUAGAAA (DNA:RNA)
RNA: B1 RNA with G25C, A28G, U29A, C30A
DNA 1: CAATCTGAATTCCGGTCTCCC
DNA 2: TGGTGGCTACGACGGGATT
B22: GUUCUCG (DNA:RNA)
RNA: B1 RNA with A27U, A28C, A31G
DNA 1: CAATCTGAATTCCGGTCTCCC
DNA 2: TGGTGGCTACGACGGGATT
B23: UGCUAUU (DNA:RNA)
RNA: B5 RNA with G27C, G28U, G29A, G30U, C31U
DNA 1: CAATCTGAATTCCGGTCTCCC
DNA 2: TGGTGGCTACGACGGGATT
B24: GGCGUGU (DNA:RNA)
RNA: B5 RNA with U25G, G27C, G29U, C31U
DNA 1: CAATCTGAATTCCGGTCTCCC
DNA 2: TGGTGGCTACGACGGGATT
B25: GUCUACU (DNA:RNA)
RNA: B1 RNA with A27C, A28U, U29A, A31U
DNA 1: CAATCTGAATTCCGGTCTCCC
DNA 2: TGGTGGCTACGACGGGATT
B26: AUUAUGG (DNA:RNA)
RNA: B1 RNA with G25A, A27U, C30G, A31G
DNA 1: CAATCTGAATTCCGGTCTCCC
DNA 2: TGGTGGCTACGACGGGATT
B27: GUGCAGG (DNA:RNA)
RNA: B1 RNA with A27G, A28C, U29A, C30G, A31G
DNA 1: CAATCTGAATTCCGGTCTCCC
DNA 2: TGGTGGCTACGACGGGATT
B28: GCCCUCG (DNA:RNA)
RNA: B1 RNA with U26C, A27C, A28C, A31G
DNA 1: CAATCTGAATTCCGGTCTCCC
DNA 2: TGGTGGCTACGACGGGATT
B29: UAAUUUA (DNA:RNA)
RNA: B1 RNA with G25U, U26A, A28U, C30U
DNA 1: CAATCTGAATTCCGGTCTCCC
DNA 2: TGGTGGCTACGACGGGATT
B30: AACAGUG (DNA:RNA)
RNA: B1 RNA with G25A, U26A, A27C, U29G, C30U, A31G
DNA 1: CAATCTGAATTCCGGTCTCCC
DNA 2: TGGTGGCTACGACGGGATT
B31: UUGUCAA (DNA:RNA)
RNA: B1 RNA with G25U, A27G, A28U, U29C, C30A
DNA 1: CAATCTGAATTCCGGTCTCCC
DNA 2: TGGTGGCTACGACGGGATT

Substitutions are numbered along the chain they refer to; changes in the protein carry UniProt numbers. This is one part of the list.

The experiment has as its target T1, RBFOX1 RRM (Homo sapiens, UniProt Q9NWB1 109-208).
T1 sequence: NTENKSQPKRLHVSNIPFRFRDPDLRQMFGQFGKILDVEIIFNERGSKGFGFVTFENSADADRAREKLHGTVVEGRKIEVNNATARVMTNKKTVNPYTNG
As to the kind of experiment: EMSA; HiTS-Eq, 1 nM pool, 10 min; buffer printed only for the single-RNA assays: 10 mM Tris pH 7.5, 150 mM NaCl, 3.4 mM EDTA, 0.001% NP-40, 30 C. As to conditions: tags: His6 N-terminal (pET28a); label: 5' 32P. In outline: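 These values rest on relative association constants, computed from read-count changes of each RNA species versus the control reaction and normalised to the cognate motif. Reads came from free RNA recovered by 8% native PAGE after purified RbFox RRM (wild type or mutant) at increasing concentrations was equilibrated for 10 min in 50 µL with 1 nM of a 5′-radiolabelled pool with 7 randomized nucleotides and DNA-annealed flanks.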
(Mobility shift assays separate free from complexed probe on a gel.)
Take B1: the binding signal is 0.00644 KA relative to UGCAUGU.

Consider B2, for which the binding signal was 0.00287 KA relative to UGCAUGU.

Take B3: the binding signal was 0.000771 KA relative to UGCAUGU.

Consider B4, for which the binding signal is 0.00607 KA relative to UGCAUGU.

For the molecule B5, the binding signal is 0.014 KA relative to UGCAUGU.

As for B6, the binding signal is 0.0132 KA relative to UGCAUGU.

Take B7: the binding signal was 0.0284 KA relative to UGCAUGU.

On to B8, for which the binding signal is 0.0111 KA relative to UGCAUGU.

B9: the binding signal was 0.00364 KA relative to UGCAUGU.

B10: the binding signal was 0.0156 KA relative to UGCAUGU.

As to B11, the binding signal was 0.0201 KA relative to UGCAUGU.

As for B12, the binding signal is 0.00367 KA relative to UGCAUGU.

Take B13: the binding signal is 0.0132 KA relative to UGCAUGU.

As for B14, the binding signal is 0.00556 KA relative to UGCAUGU.

Consider B15, for which the binding signal is 0.017 KA relative to UGCAUGU.

In the case of B16, the binding signal was 0.00409 KA relative to UGCAUGU.

On to B17, for which the binding signal was 0.0182 KA relative to UGCAUGU.

On to B18, for which the binding signal is 0.0121 KA relative to UGCAUGU.

B19: the binding signal was 0.00373 KA relative to UGCAUGU.

Regarding B20, the binding signal is 0.00309 KA relative to UGCAUGU.

Turning to B21, the binding signal is 0.00471 KA relative to UGCAUGU.

In the case of B22, the binding signal was 0.0248 KA relative to UGCAUGU.

As for B23, the binding signal is 0.0127 KA relative to UGCAUGU.

B24: the binding signal was 0.0166 KA relative to UGCAUGU.

Regarding B25, the binding signal was 0.00683 KA relative to UGCAUGU.

Turning to B26, the binding signal was 0.00808 KA relative to UGCAUGU.

On to B27, for which the binding signal is 0.0187 KA relative to UGCAUGU.

As to B28, the binding signal was 0.0107 KA relative to UGCAUGU.

B29: the binding signal was 0.00382 KA relative to UGCAUGU.

In the case of B30, the binding signal is 0.00691 KA relative to UGCAUGU.

For the molecule B31, the binding signal is 0.0169 KA relative to UGCAUGU.
